Some of the results follow. Shown are side measurements of this screen, not its main read-out; they come without a call.
What was measured:
Test in all cases: Primary Screen for Target Class Profiling of Small Molecule Inhibitors of Methyltransferases
[1] = target: Glycine N-methyltransferase (Homo sapiens) (UniProt Q14749); conditions: purified enzyme, MTase-Glo SAH luminescence; measured here: GNMT inhibition; at 40 µM; stronger effect = lower value
How it was run: (§1)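 Each enzyme was assayed with SAM and its substrate. SAH formation detected by MTase-Glo luminescence; single-point 40 uM screen[…].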

[2] = target: Guanidinoacetate N-methyltransferase (Homo sapiens) (UniProt Q14353); conditions: purified enzyme, MTase-Glo SAH luminescence; measured here: GAMT inhibition; at 40 µM; stronger effect = lower value
How it was run: as §1

[3] = target: Histamine N-methyltransferase (Homo sapiens) (UniProt P50135); conditions: purified enzyme, MTase-Glo SAH luminescence; measured here: HNMT inhibition; at 40 µM; stronger effect = lower value
How it was run: as §1

[4] = target: Nicotinamide N-methyltransferase (Homo sapiens) (UniProt P40261); conditions: purified enzyme, MTase-Glo SAH luminescence; measured here: NNMT inhibition; at 40 µM; stronger effect = lower value
How it was run: as §1

[5] = target: Phenylethanolamine N-methyltransferase (Homo sapiens) (UniProt P11086); conditions: purified enzyme, MTase-Glo SAH luminescence; measured here: PNMT inhibition; at 40 µM; stronger effect = lower value
How it was run: as §1
% is set by controls: 0 for no effect and ±100 for the full control effect.

SMILES	activity change, negative = inhibition [1] [%]	activity change, negative = inhibition [2] [%]	activity change, negative = inhibition [3] [%]	activity change, negative = inhibition [4] [%]	activity change, negative = inhibition [5] [%]
CCC(=O)N1CCc2sc(C(=O)NCCCOC)cc2C1	-3.9	-8.97	-1.3	-8.34	-5.37
C=CCn1c(=O)c2ccc(C(=O)NCC(C)C)cc2n2c(=O)n(CC(=O)NCc3ccccc3)nc12	-3.29	-0.851	-4.67	-11	-5.66
COc1ccc(Nc2n[nH]nc2C(=O)NCc2ccc3c(c2)OCO3)cc1	0.986	4.95	5.84	1.78	0.858
O=C(c1cccc2c1NCCC2)N1CCn2nc(C(O)C3CC3)cc2C1 (stereo not given)	-1.04	-0.21	1.9	-7.15	0.51
Cn1cc(CN(Cc2c(C(=O)N3CCCC3)nc3sccn23)C2CC2)cn1	0.119	-5.22	1.75	-3.66	1.3
OC[C@@H]1O[C@H](CNC2CCOCC2)[C@H](N2CCCCC2)[C@@H]1O	-3.27	-5.16	-3.18	-5.71	-2.87
COc1ccc(CN2C(=O)[C@@H]3C[C@@H](O)CN3C3(CN(C)C3)C2=O)cc1	-2.99	-6.38	-1.88	-6.18	-5.48
COc1ccc(CNC(=O)Cn2ccc3cc(S(=O)(=O)N4CCCC4)ccc32)cc1	-1.71	3.66	-3.7	-6.09	-0.478
COc1ccc(NC(=O)CCc2nnc3n(Cc4ccc(Cl)cc4)c(=O)c4ccccc4n23)cc1	-1.61	0	4.54	2.2	-2.32
CC1CCC(=O)CC(O)C(O)CC(=O)O1 (stereo not given)	2.86	3.54	7.23	-8.78	1.82
CCCn1c(=O)c2ccccc2n2c(=O)n(CC(=O)c3ccc(C)cc3)nc12	-2	4.07	2.9	-2.41	1.5
COc1ccc2cc3n(c2c1)CC(C)(C(=O)NC1CCCCC1)N(Cc1cccc(Cl)c1)C3=O (stereo not given)	-0.799	2.8	1.81	0.22	-0.611
Cc1nc([C@@H]2CN(S(=O)(=O)c3ccc4c(c3)CCCC4)C[C@H]2C(N)=O)n[nH]1	-3.48	-2.66	-4.37	-5.13	-5.67
COc1ccc(-c2ccc3ncn(C4CC4)c(=O)c3n2)cn1	-8.44	-10.7	-4.12	-12	-4.9
COc1ccccc1C(=O)N1CCCC(c2nnc3n2C(C(=O)O)CC3)C1 (stereo not given)	-4.97	-8.59	-3.06	-12.8	7.75
CCN(CC)CCn1c(=O)c(Cc2ccc(OC)cc2)nc2ccccc21	-8.28	3.63	-16.3	-13	1.9
O=C(CSc1nnc2n(Cc3ccccc3)c(=O)c3ccccc3n12)Nc1cc(F)ccc1F	-3.65	3.69	3.8	-7.18	-0.298
CCc1cc2c(cc3n2CC(C)(C(=O)NC2CCCCCC2)N(c2cccc(C)c2C)C3=O)s1 (stereo not given)	2.83	3.9	-2.29	8.25	0.922
CC1OC2OC(=O)C3(C)CC4C5(CO5)C5=CC(=O)OC(C)(C)C5=CC(=O)C4(C)C(C1=O)C23 (stereo not given)	-6.59	-1.42	9.57	-14	-10
